# Measurements published in article PMC4336329 (PLoS ONE, 2015).
# Hit rate of the full screen: of about 310,000 compounds, about 14,000 (4.5%) showed an effect of 50% or more. The effect is printed as a negative number. The list shows a part of the results.
# Target: human ether-à-go-go-related gene (hERG) potassium channel (human, UniProt Q12809)
# Assay: primary screen, population patch clamp on CHO cells stably expressing hERG
# 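Note: peak tail current of the secondary pulse compared with the same well before compound.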
# human ether-à-go-go-related gene (hERG) potassium channel, sequence (Q12809 whole entry, looked up): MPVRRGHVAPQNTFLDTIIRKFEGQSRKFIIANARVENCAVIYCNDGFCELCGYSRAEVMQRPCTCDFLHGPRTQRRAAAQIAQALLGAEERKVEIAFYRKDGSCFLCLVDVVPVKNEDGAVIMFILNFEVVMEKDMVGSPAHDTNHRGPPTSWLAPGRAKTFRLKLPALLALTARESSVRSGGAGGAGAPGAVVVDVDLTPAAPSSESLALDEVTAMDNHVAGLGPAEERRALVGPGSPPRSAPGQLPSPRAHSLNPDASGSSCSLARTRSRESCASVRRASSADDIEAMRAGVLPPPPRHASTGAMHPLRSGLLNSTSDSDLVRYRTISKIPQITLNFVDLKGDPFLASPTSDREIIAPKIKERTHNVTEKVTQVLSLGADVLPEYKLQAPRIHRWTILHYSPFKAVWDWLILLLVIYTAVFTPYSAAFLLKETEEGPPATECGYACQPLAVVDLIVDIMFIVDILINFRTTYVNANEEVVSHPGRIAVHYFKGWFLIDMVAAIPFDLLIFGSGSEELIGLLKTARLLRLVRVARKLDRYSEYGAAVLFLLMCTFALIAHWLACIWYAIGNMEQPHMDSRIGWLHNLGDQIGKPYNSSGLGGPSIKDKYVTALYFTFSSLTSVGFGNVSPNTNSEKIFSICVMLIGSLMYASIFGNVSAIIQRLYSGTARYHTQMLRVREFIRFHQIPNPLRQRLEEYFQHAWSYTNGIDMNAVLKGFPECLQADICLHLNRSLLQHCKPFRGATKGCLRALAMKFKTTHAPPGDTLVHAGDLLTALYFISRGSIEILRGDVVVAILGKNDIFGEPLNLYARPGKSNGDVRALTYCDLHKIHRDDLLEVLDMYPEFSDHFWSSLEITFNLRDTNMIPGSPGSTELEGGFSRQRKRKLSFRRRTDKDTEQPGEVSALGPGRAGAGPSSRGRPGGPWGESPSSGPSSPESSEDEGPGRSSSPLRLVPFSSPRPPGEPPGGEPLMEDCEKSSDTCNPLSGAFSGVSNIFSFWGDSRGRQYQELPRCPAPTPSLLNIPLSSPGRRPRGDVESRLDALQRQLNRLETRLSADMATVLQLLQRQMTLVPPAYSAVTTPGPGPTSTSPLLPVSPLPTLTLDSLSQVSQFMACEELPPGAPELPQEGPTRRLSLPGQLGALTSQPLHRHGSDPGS
row,SMILES,"hERG current change (%, negative = inhibition) at 10uM [%]"
1,O=C(c1ccncc1)N1CCN(S(=O)(=O)c2cccc([N+](=O)[O-])c2)CC1,-11.7
2,CCC(=NCc1cc(OC)cc(OC)c1)c1c(O)[nH]c(=O)[nH]c1=O,-7.6
3,O=C(COC(=O)c1ccc([N+](=O)[O-])cc1)NC1CCCC1,3.77
4,O=C(NCC1CCN(C(=O)c2ccc([N+](=O)[O-])cc2)CC1)C(=O)Nc1ccccc1,-36.8
5,Cl.OC1(CNCc2ccccc2)C2CC3CC(C2)CC1C3 (centres unmarked),10.4
6,CCOc1ccc(/C=N/Nc2nncc(-c3ccccc3)n2)cc1OC,-24.4
7,Cc1onc(-c2ccccc2)c1C(=O)Nc1ccc(-c2nnc3n2CCCCC3)cc1,5.54
8,CC(C(=O)Nc1ccccc1-c1ccccc1)N1CCN(Cc2ccccc2)CC1 (centres unmarked),-72.2
9,CC(=O)N(Cc1cc2c(C)cc(C)cc2[nH]c1=O)C1CCCCC1,8.13
10,CC(=O)Nc1ccc(S(=O)(=O)Nc2nc3ccccc3nc2-n2ccc(=NC(=O)c3ccc(F)cc3)cc2)cc1,-8.39
11,O=C(C[n+]1cc(-c2ccc(Cl)c(Cl)c2)n2c1CCC2)OCc1ccccc1.[Br-],-37.6
12,Cn1c(N)c(C(=O)COC(=O)C2(c3ccc(Cl)cc3)CCCC2)c(=O)n(C)c1=O,10.4
13,CCOc1ccc(NC(=O)CCn2c(=O)[nH]c3ccsc3c2=O)cc1,12.1
14,CCC1(CC)Cc2ccccc2C(Nc2c(C)n(C)n(-c3ccccc3)c2=O)=N1,-7.53
15,O=C(NCc1ccccc1)c1ccc(OC2CSC2)cc1,16.6
16,CCOC(=O)c1cc(S(=O)(=O)NC2CCN(C(=O)OCC)CC2)cn1C,-2.54
17,COc1ccc(Cc2nnc(SC)[nH]c2=O)cc1OC,9.63
18,O=c1[nH]c2ccc([N+](=O)[O-])cc2nc1/C=C(\O)c1ccccc1,16.8
19,Cc1ccc2nc(NCc3ccccc3)c(C#N)cc2c1,-9.93
20,CCC(=O)c1ccc(N2CCN(C(=O)c3cc([N+](=O)[O-])ccc3F)CC2)c(F)c1,-42.9
21,O=C(O)CSc1nnc(-c2ccccc2)c(-c2ccccc2)n1,15
22,Cc1ccc(NC(=S)/N=C(\N)Nc2nc(C)c3cc(C)c(C)cc3n2)cc1C,6.12

row,SMILES,"hERG current change (%, negative = inhibition) at 10uM [%]"
1,CCOc1cccc(N2C(=O)CC(=O)NC2=O)c1,1.22
2,CCCNC(=O)NC(=O)CSc1cccc(C(F)(F)F)c1,11.1
3,COc1ccc(-n2nc(C(=O)NCC(=O)N3CCN(c4ccccn4)CC3)c3ccccc3c2=O)cc1Cl,2.58
4,CC(C)N(Cc1ccccc1)C(=O)c1ccc2nsnc2c1,1.98
5,CCOC(=O)/C(=C\c1ccccc1)C(=O)c1cc(C(C)=O)c(Nc2ccccc2)s1,-4.85
6,Cc1c(C(=O)c2ccc(F)cc2F)c2ccccn2c1CCC#N,0.824
7,Cc1cc(Nc2ccc(F)cc2Cl)n2nc(C)nc2n1,-8.79
8,Cc1ccc2nc(C(Cl)(Cl)Cl)nc(N/N=C/c3ccncc3)c2c1,24
9,COc1ccc(C)cc1Cn1nnc2ccccc21,-4.34
10,COc1ccc(OC)c(C2=NOC(C(=O)NCC3CCCO3)C2)c1 (centres unmarked),4.2
11,COc1ccccc1NC(=O)N1CCCC1C(=O)NCCc1ccccc1 (centres unmarked),16.5
12,COc1cccc(C(=O)COC(=O)C2CC(=O)N(c3ccc(Oc4ccccc4OC)cc3)C2)c1 (centres unmarked),-4.07
13,Cc1onc(-c2ccccc2Cl)c1C(=O)NCCN1CCOCC1,9.41
14,CCN(CC)S(=O)(=O)c1ccc2c(c1)N(CC(=O)NCc1ccccn1)C(=O)CO2,-7.41
15,Cn1c(CCNC(=O)c2ccco2)nc2cc(NC(=O)NC3CCCCC3)ccc21,0.679
16,COC(=O)CCC(=O)OC1(C)C(=O)C2=CN(c3ccccc3)C(c3ccc(OC)cc3)=CC2=C(Br)C1=O (centres unmarked),6.51
17,COc1ccccc1OCC(=O)NNc1c2ccccc2nc2ccccc12,-7.43
18,CCOC(=O)c1[nH]c2cc(OC)c(OC)cc2c1NC(=O)CN1CCN(c2ccc(OC)cc2)C(C)C1 (centres unmarked),-17.5
19,N#CCc1nn(-c2ccc(Cl)cc2)c(N)c1C#N,0.795
20,O=C(CCCN1C(=O)S/C(=C\c2ccccc2)C1=O)NNC(=O)c1ccccc1O,14.2
21,CCN(CC)CCn1c(NCc2ccccn2)nc2ccccc21.Cl,-34.4
22,COc1ccc(CN2CCSCC2)cc1C,7.71
